This note sets out measurements from the supplement of paper PMC9334596.

Several values for one entry are separate records, joined by “and”; a condition that tells them apart may be missing. Equal values may be shown once. The full ranking holds about 5,300 compounds; the median of “PER2::LUC luminescence relative to vehicle control” is about 0.96, and the highest 2% start at about 1.3. The list shows a part of the results.

This experiment relates to mPer2Luc MEF. As to the kind of experiment: PER2::LUC luminescence relative to vehicle control (fold of vehicle); higher = higher PER2::LUC reporter signal. The conditions noted are these: 10 µM. The gist of the method: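 Each value gives PER2::LUC luminescence as fold of vehicle control, measured with the ONE-Glo luciferase assay system in mouse embryonic fibroblasts carrying the mPer2Luc reporter. Cells grown in DMEM with 10% FBS at 37 °C and 5% CO2 were seeded at ~3000 per well in 384-well plates. Library compounds were added at 10 μM 48 h later, and readings were taken 24 h and 30 h after treatment.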

Regarding `CC(=O)Nc1ccc(C(=O)Nc2ccccc2N)cc1`, the “PER2::LUC luminescence” value runs as follows: (time after treatment 24 h) 0.744; (time after treatment 30 h) 0.677.

Consider `NCC(O)C1CCCCCCC1` (stereo not given), for which the “PER2::LUC luminescence” value was 1.07 (time after treatment 24 h) and 0.964 (time after treatment 30 h).

With `CN1CCC(=C2c3ccccc3C=Cc3ccccc32)CC1`, the “PER2::LUC luminescence” value runs as follows: (time after treatment 24 h) 0.373; (time after treatment 30 h) 0.75.

As for `COc1ccc2c(=O)c(OC)c(-c3ccccc3)oc2c1`, the “PER2::LUC luminescence” value runs as follows: (time after treatment 24 h) 0.767; (time after treatment 30 h) 0.809.

Turning to `COC(=O)[C@@H](N)CSC/C=C(\C)CC/C=C(\C)CCC=C(C)C`, the “PER2::LUC luminescence” value amounted to 1.05 (time after treatment 24 h) and 0.998 (time after treatment 30 h).

Turning to `O=c1[nH]c(C2CCCN2)nc2c1oc1ccc(Cl)cc12` (stereo not given), the “PER2::LUC luminescence” value reads like this: (time after treatment 24 h) 1.22; (time after treatment 30 h) 1.29.

Consider `N=C(N)NC(=N)NCCc1ccccc1`, for which the “PER2::LUC luminescence” value (time after treatment 24 h) amounted to 1.02 and the “PER2::LUC luminescence” value (time after treatment 30 h) amounted to 0.868.

On to `COc1ccc(-c2cc(=O)c3ccccc3o2)cc1`, for which the “PER2::LUC luminescence” value is 1.72 (time after treatment 24 h) and 1.29 (time after treatment 30 h).

Turning to `CO[C@H]1/C=C/O[C@@]2(C)Oc3c(C)c(O)c4c(O)c(c(/C=N/N5CCN(C6CCCC6)CC5)c(O)c4c3C2=O)NC(=O)/C(C)=C\C=C\[C@H](C)[C@H](O)[C@@H](C)[C@@H](O)[C@@H](C)[C@H](OC(C)=O)[C@@H]1C`, the “PER2::LUC luminescence” value runs as follows: (time after treatment 24 h) 0.838; (time after treatment 30 h) 0.993.

For `CC(C)(C=O)Cc1cc(C(C)(C)C)c(O)c(C(C)(C)C)c1`, the “PER2::LUC luminescence” value is, setting by setting: (time after treatment 24 h) 0.882; (time after treatment 30 h) 0.887.

On to `CC(C)(CO)[C@@H](O)C(=O)NCCC(=O)NCCSSCCNC(=O)CCNC(=O)[C@H](O)C(C)(C)CO`, for which the “PER2::LUC luminescence” value reads like this: (time after treatment 24 h) 0.959 and 0.942; (time after treatment 30 h) 1.1 and 0.88.

Take `C[C@H]1O[C@H](O[C@H]2[C@H](O)[C@@H](O)[C@@H](O[C@H]3[C@H](O)[C@@H](O)C(O)O[C@@H]3CO)O[C@@H]2CO)[C@H](O)[C@@H](O)[C@@H]1N[C@H]1C=C(CO)[C@@H](O)[C@H](O)[C@H]1O` (stereo not given in full): the “PER2::LUC luminescence” value reads like this: (time after treatment 24 h) 0.986; (time after treatment 30 h) 0.945.

With `Cn1c(CNc2ccc(C(=N)N)cc2)nc2cc(C(=O)N(CCC(=O)O)c3ccccn3)ccc21`, the “PER2::LUC luminescence” value is 1.01 and 1.14 (time after treatment 24 h); 0.946 and 1.13 (time after treatment 30 h).

For the compound `CNC1CCCN(c2c(F)cc3c(=O)c(C(=O)O)cn(C4CC4)c3c2OC)C1` (stereo not given), the “PER2::LUC luminescence” value reads like this: (time after treatment 24 h) 1.05; (time after treatment 30 h) 1.04.

`CC[C@H]1[C@@H](O)[C@@H]2[C@H](CC[C@]3(C)[C@@H]([C@H](C)CCC(=O)O)CC[C@@H]23)[C@@]2(C)CC[C@@H](O)C[C@@H]12`: the “PER2::LUC luminescence” value reads like this: (time after treatment 24 h) 1.02; (time after treatment 30 h) 1.12.

Turning to `CN1CCN(CC/C=C2/c3ccccc3Sc3ccc(S(=O)(=O)N(C)C)cc32)CC1`, the “PER2::LUC luminescence” value (time after treatment 24 h) is 0.816 and 0.638; the “PER2::LUC luminescence” value (time after treatment 30 h) was 0.993 and 0.631.

In the case of `CCOCCn1c(C2CCN(CCc3ccc(C(C)(C)C(=O)O)cc3)CC2)nc2ccccc21`, the “PER2::LUC luminescence” value is, setting by setting: (time after treatment 24 h) 1.04; (time after treatment 30 h) 0.962.

As to `CCCCCC1C(=O)CCC1CC(=O)OC` (stereo not given), the “PER2::LUC luminescence” value reads like this: (time after treatment 24 h) 1.06; (time after treatment 30 h) 0.978.

As for `CC(C)=CCC/C(C)=C/CC/C(C)=C/CC/C(C)=C/C(=O)O`, the “PER2::LUC luminescence” value (time after treatment 24 h) amounted to 1.07 and the “PER2::LUC luminescence” value (time after treatment 30 h) was 0.976.

As for `C=C(CC)C(=O)c1ccc(OCC(=O)O)c(Cl)c1Cl`, the “PER2::LUC luminescence” value by setting is: (time after treatment 24 h) 0.817; (time after treatment 30 h) 0.944.

Regarding `CCCCCOc1ccc(-c2ccc(-c3ccc(C(=O)N[C@H]4C[C@@H](O)[C@@H](O)NC(=O)[C@@H]5[C@@H](O)[C@@H](C)CN5C(=O)[C@H]([C@@H](C)O)NC(=O)[C@H]([C@H](O)[C@@H](O)c5ccc(O)cc5)NC(=O)[C@@H]5C[C@@H](O)CN5C(=O)[C@H]([C@@H](C)O)NC4=O)cc3)cc2)cc1`, the “PER2::LUC luminescence” value by setting is: (time after treatment 24 h) 0.982; (time after treatment 30 h) 0.954.

`CC(C)c1nc(N(C)S(C)(=O)=O)nc(-c2ccc(F)cc2)c1/C=C/[C@@H](O)C[C@@H](O)CC(=O)O`: the “PER2::LUC luminescence” value runs as follows: (time after treatment 24 h) 0.859 and 0.89; (time after treatment 30 h) 0.949 and 0.869.

In the case of `C[N+](C)(C)CCOP(=O)(O)OP(=O)([O-])OC[C@H]1O[C@@H](n2ccc(N)nc2=O)[C@H](O)[C@@H]1O`, the “PER2::LUC luminescence” value reads like this: (time after treatment 24 h) 1.13 and 0.767; (time after treatment 30 h) 0.929 and 0.951.

On to `Nc1ccc(S(=O)(=O)NC(=O)c2ccccc2)cc1`, for which the “PER2::LUC luminescence” value reads like this: (time after treatment 24 h) 0.813; (time after treatment 30 h) 0.842.

On to `CC(C)NCC(O)COc1cccc2ccccc12` (racemic), for which the “PER2::LUC luminescence” value by setting is: (time after treatment 24 h) 0.894; (time after treatment 30 h) 1.11.

Take `CNC(=O)c1c(-c2ccc(F)cc2)oc2cc(N(CCO)S(C)(=O)=O)c(C3CC3)cc12`: the “PER2::LUC luminescence” value was found to be 1.01 (time after treatment 24 h) and 1.01 (time after treatment 30 h).

`C[C@](N)(Cc1ccc(O)cc1)C(=O)O`: the “PER2::LUC luminescence” value (time after treatment 24 h) is 1.08 and the “PER2::LUC luminescence” value (time after treatment 30 h) was 1.18.

Take `CNCCNS(=O)(=O)c1cccc2cnccc12`: the “PER2::LUC luminescence” value was determined as 1.21 (time after treatment 24 h) and 1.1 (time after treatment 30 h).

As for `O=C(COc1cccc2c(=O)[nH]ccc12)c1ccccc1`, the “PER2::LUC luminescence” value worked out at 0.847 (time after treatment 24 h) and 0.942 (time after treatment 30 h).

For `Cc1cccc(C)c1NC(=O)c1ccccc1C(=O)O`, the “PER2::LUC luminescence” value was found to be 1.03 (time after treatment 24 h) and 0.712 (time after treatment 30 h).

Consider `CCNC(=O)[C@H]1O[C@@H](n2cnc3c(N)nc(NCCc4ccc(CCC(=O)O)cc4)nc32)[C@H](O)[C@@H]1O`, for which the “PER2::LUC luminescence” value is 1.11 and 1.12 (time after treatment 24 h); 1.21 and 1.03 (time after treatment 30 h).

Turning to `FCOC(C(F)(F)F)C(F)(F)F`, the “PER2::LUC luminescence” value reads like this: (time after treatment 24 h) 0.874; (time after treatment 30 h) 0.956.

With `CS(=O)(=O)c1ccc([C@@H](O)[C@@H](CF)NC(=O)C(Cl)Cl)cc1`, the “PER2::LUC luminescence” value is 1.02 (time after treatment 24 h) and 0.924 (time after treatment 30 h).

`CCN(CC)CCCC(C)Nc1ccnc2cc(Cl)ccc12` (stereo not given): the “PER2::LUC luminescence” value runs as follows: (time after treatment 24 h) 0.908; (time after treatment 30 h) 0.93.

Consider `CC(C)NC(=O)COc1cccc(-c2nc(Nc3ccc4[nH]ncc4c3)c3ccccc3n2)c1`, for which the “PER2::LUC luminescence” value (time after treatment 24 h) amounted to 0.78 and the “PER2::LUC luminescence” value (time after treatment 30 h) was found to be 0.739.

As to `CS(=O)(=O)Nc1cc2occ(NC=O)c(=O)c2cc1Oc1ccccc1`, the “PER2::LUC luminescence” value by setting is: (time after treatment 24 h) 1.09; (time after treatment 30 h) 0.986.

Take `N[C@@H](CC(=O)O)C(=O)O`: the “PER2::LUC luminescence” value by setting is: (time after treatment 24 h) 1.07 and 0.999; (time after treatment 30 h) 1.05 and 0.982.

`CNc1ncnc2c1ncn2[C@@H]1O[C@H](CO)[C@@H](O)[C@H]1O`: the “PER2::LUC luminescence” value was 0.974 (time after treatment 24 h) and 1.04 (time after treatment 30 h).

Take `Cc1ncc([N+](=O)[O-])n1C`: the “PER2::LUC luminescence” value (time after treatment 24 h) is 1.13 and the “PER2::LUC luminescence” value (time after treatment 30 h) turned out to be 0.998.

On to `CC(C)OC(=O)C(C(=O)OC(C)C)=C1SC=CS1`, for which the “PER2::LUC luminescence” value reads like this: (time after treatment 24 h) 0.876; (time after treatment 30 h) 0.982.

With `COc1cccc(CCc2ccccc2OCC(CN(C)C)OC(=O)CCC(=O)O)c1` (stereo not given), the “PER2::LUC luminescence” value worked out at 0.795 (time after treatment 24 h) and 0.723 (time after treatment 30 h).

As to `CN(C)C[C@H](O)Cn1c2ccc(Br)cc2c2cc(Br)ccc21` (racemic), the “PER2::LUC luminescence” value is 1.05 (time after treatment 24 h) and 1.07 (time after treatment 30 h).

With `CC[C@]12C=CCN3CC[C@@]4(c5cc([C@@]6(C(=O)OC)C[C@@H]7C[C@@H](C(C)(F)F)CN(Cc8c6[nH]c6ccccc86)C7)c(OC)cc5N(C)[C@H]4[C@@](O)(C(=O)OC)[C@@H]1OC(C)=O)[C@@H]32`, the “PER2::LUC luminescence” value by setting is: (time after treatment 24 h) 0.29; (time after treatment 30 h) 0.21.

On to `CCOc1cc(N2CCC(O)CC2)ccc1Nc1ncc2c(n1)N(C1CCCC1)CCC(=O)N2C`, for which the “PER2::LUC luminescence” value reads like this: (time after treatment 24 h) 0.169; (time after treatment 30 h) 0.168.

Take `c1ccc2c(c1)CCCC2C1=NCCN1` (stereo not given): the “PER2::LUC luminescence” value is 0.873 and 0.792 (time after treatment 24 h); 0.994 and 0.861 (time after treatment 30 h).

As to `C[C@@H](O)[C@H]1C(=O)N2C(C(=O)O)=C(SCCNC=N)C[C@H]12`, the “PER2::LUC luminescence” value runs as follows: (time after treatment 24 h) 0.584; (time after treatment 30 h) 0.799.

With `CN=c1nc(-c2ccccc2)n(-c2ccccc2)s1`, the “PER2::LUC luminescence” value was 1 and 1.21 (time after treatment 24 h); 0.972 and 1.08 (time after treatment 30 h).

In the case of `Oc1ccc2c(c1)OC[C@]1(O)Cc3cc(O)c(O)cc3[C@H]21`, the “PER2::LUC luminescence” value (time after treatment 24 h) was 0.742 and the “PER2::LUC luminescence” value (time after treatment 30 h) was determined as 0.607.

Take `CC(C)=CCC[C@](C)(O)[C@H]1CC[C@]2(C)[C@@H]1CC[C@@H]1[C@@]3(C)CCC(=O)C(C)(C)[C@@H]3CC[C@]12C`: the “PER2::LUC luminescence” value (time after treatment 24 h) stood at 1.05 and the “PER2::LUC luminescence” value (time after treatment 30 h) amounted to 0.987.

With `O=C(/C=C/c1ccc(O)c(O)c1)c1ccc(O[C@@H]2O[C@H](CO)[C@@H](O)[C@H](O)[C@H]2O)c(O)c1O`, the “PER2::LUC luminescence” value by setting is: (time after treatment 24 h) 1.01; (time after treatment 30 h) 0.965.
